Results from the supplement of paper PMC11417369.
The other results are listed elsewhere or left out.

These sequences were tested on PfSIP2 AP2 domain 1 (GST-tagged) (assay: gcPBM binding intensity (ln(normalized median fluorescence intensity)); higher = stronger DNA binding).
In short: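 GST-fused DNA-binding domains of P. falciparum, expressed in E. coli, were applied at about 25 μg on average for 1 h to an Agilent 4 × 180k array of primer-extended double-stranded 36-bp intergenic genomic probes and negative controls. Binding intensity is the highest Masliner-normalised natural-log median intensity across replicate spots of either probe orientation, measured with Alexa488 anti-GST antibody and a 488 nm scan.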

| Sequence | gcPBM binding intensity (ln) |
| --- | --- |
| ATAATATAATATATATGTACACATCCTTTTTGTGTA [XGTACX_site2879] | 7.09 |
| TAAAAGTAAAAAGGTAGTACCTAAATAATATATATA [XGTACX_site8399] | 7.78 |
| ATAAGATAGGCATATACACACATTTATTTACAGATA [CACACA_site5754] | 6.87 |
| TTCAACATATTAAAAAGTACAGAATATAACATTATA [XGTACX_site1361] | 6.86 |
| GAATAAAAAATTGGCACACATAAATATATGGATATA [CACACA_site3047] | 6.99 |
| AATAAATTTAGACACACACACACATATAAATAAATA [CACACA_site6531] | 7.17 |
| TATACGTGAATGACAGTGCATTTCAAAAGTATAAAA [GTGCAC_site9887] | 8.47 |
| TTTGGGTATACACATACATGCATGTCCTTATATATA [TGCATGCA_site84] | 6.9 |
| ATATCATAAATTTATGCATGTTCTTTCTTCAACTCT [TGCATGCA_site992] | 6.9 |
| AGTAGGCATATTGGTTGTACAAAAAAATTATGCACC [XGTACX_site8925] | 10.3 |
| TTTTTTTTTTCTCTCGCACACATTTTTTAAAATGAG [CACACA_site2607] | 7.38 |
| ATATATATATATGTTTATTTATTTGAACGATTGTGG [CACACA_negctrl_site828] | 9.36 |
| ATATTTATATAGATGTGTACATAAATATAATAACAT [XGTACX_site1681] | 7.15 |
| GACTCTTAAAAAATTTGTACCCACATAAATAATATA [XGTACX_site4313] | 7.34 |
| AAAAATAAAATATATACACACATATATATATATATA [CACACA_site2943] | 9.57 |
| ACATATATATATATGTGTACATATTTATACAACAAT [XGTACX_site6660] | 7.5 |
| TTTTTAATTTTGTGGGTGCTTTCGTGTTATTATATA | 8.05 |
| AGGAAATTTGTTATTGCACACAAATTTTTCTTTTTT [CACACA_site8732] | 6.78 |
| AATGTCAGTATGCGAGGTACACGTATAAAAATTACA [XGTACX_site4109] | 7.15 |

| Sequence | gcPBM binding intensity (ln) |
| --- | --- |
| TATTATAATAAACCTATACACACATAAATAAATAAA [GTGCAC_negctrl_site627] | 7.03 |
| TTTTACTAAATATATACACACATTATACAGATATAT [CACACA_site5765] | 7.1 |
| TACATAAATTAAAACACACACACACTAGAAAAAAAA [CACACA_site5278] | 7.04 |
| TATATATATATACCAACACACATACATATATATATA [CACACA_site8530] | 9.43 |
| TAAAAAATAAAAATTGCACACTAAAAAATTACGCAC [CACACA_site9129] | 8 |
| TGTCACATAATTTATGCACACAATGATTATGCTTAA [CACACA_site2358] | 7.26 |
| AAGTATAAATTAAAATGTACTTATAAAAAAAAAGAA [XGTACX_site7028] | 7.12 |
| ACATATATTGTACATACACACCTATATAAATATCCT [CACACA_site7503] | 7.48 |
| TATGTATGTATGTATGCATGTGTAACACCTAAATAT [TGCATGCA_site361] | 7.37 |
| CCATATTTCATTAATGAACACACAAAGAGGTATATA [CACACA_site8431] | 7.11 |
| ATCTCTACAAAGTGCACACACGTAAAAACATATATA [CACACA_site6046] | 10.8 |
| ATTTTCCTTTAATTATGTACTTATGTAATAATAATG [XGTACX_site2612] | 6.92 |
| TGTATGATTATGTTGTGTACGTAAAATATGAAAAAT [XGTACX_site1720] | 7.79 |
| GCACACATATAATTAAACATATATTTGTATTATTTT [GTGCAC_negctrl_site327] | 6.99 |
| GTATCATAAAAGTATACACACATACATACATATGTA [CACACA_site5456] | 7.28 |
| TATCCTAATGCTACCACACACACAAAAACAAATAAT [CACACA_site2609] | 7.5 |
| AATATTTATGGGTGCACACAAACATACATATATATA [CACACA_site3395] | 11.8 |
| AAAAAAAAGAATAGAGCATGCAAAATATATGAAATA [TGCATGCA_site933] | 6.73 |
| ATGTTGAAAGGAAAAAATAATAAAATCGATATATTA [CACACA_negctrl_site549] | 6.72 |

| Sequence | gcPBM binding intensity (ln) |
| --- | --- |
| CCTTACTTCTTATAAAGTACCCAATGATATACATTA [XGTACX_site1554] | 7 |
| TTTTAATGTATATTTTGTACGTATTATTAATATTCG [XGTACX_site8453] | 6.99 |
| TAAAGATATAAATGCACACGTATTAAAAAAAAAATA [CACACA_site952] | 7.4 |
| TTATCATTACATGAGTGTACATTATTATATTTTTTT [XGTACX_site7845] | 6.84 |
| ATATATTTTTTTTTTTGTACGTATATTTATATAATT [XGTACX_site8719] | 7.1 |
| GAAAGAAAGAAAGAAAGTACATATAAAAATATACAT [XGTACX_site7299] | 6.67 |
| TCGTGTTTTAAAAAAATGAAGAAAAGTAAAAAAAAA [XGTACX_negctrl_site23] | 7 |
| ATGATAGTAATTAATAGTACTTTTTTTGATACAAAA [XGTACX_site4288] | 6.84 |
| TAATATGAATATATATGTACATACAATTTGTTATAT [XGTACX_site5815] | 7.12 |
| ATTAAATGTATGACTTGTACATAAAATAAAAAAAAA [XGTACX_site6555] | 6.96 |
| ATTAGTGACATTATTACACACAAAAGAAAACAGAAA [CACACA_site3984] | 7.25 |
| TGAATCTATATACAGGTGCGTAAAAAATAACTTATA | 8.67 |
| CAAGAATTAAAATAAAGTACAAAAGTAACAACTTTT [XGTACX_site1474] | 7.11 |
| AAAAAAAAGGAAAAGGGTACAAAACCATACTTACAT [XGTACX_site4783] | 6.77 |
| AGTATAAGCATTATTGTGCACATAATTATAATTTTT | 8.88 |
| AGTTTAAATTAAATTACACACTACGAATAATATATT [CACACA_site7811] | 6.95 |
| GTTGCAATTAACACTAGTACATATAAGTAGTTTATT [XGTACX_site2063] | 6.86 |
| ATTGTTCTCCAAAAGTGTACGTATTATTTTTCTGGA [XGTACX_site1404] | 7.3 |
| TATATATTAATAAATAGTACCCGTGGAATTTATATT [XGTACX_site5855] | 6.95 |
